By IC50 is meant the dose at which the fit gives 50% viability; where the fit passes the top or lowest dose, that dose stands as a limit. For AUC the same curve is integrated over the 256-fold range of doses and scaled to a fraction; the more sensitive the line, the further below 1. For some of these results: A top dose marked as inferred was derived from the fitted curves, not read from the paper.
Columns and labels:
Experiment in all cases: Viability of human cancer cell lines after 72 h of drug (GDSC screen)
SB590885 = compound: CN(C)CCOc1ccc(-c2nc(-c3ccncc3)c(-c3ccc4c(c3)CC/C4=N\O)[nH]2)cc1 [SB590885]; conditions: top dose 5 µM; top dose inferred
Description: (§1)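 Human cancer cell lines in 384-well plates, medium with 10% serum, drug for 72 h over a 256-fold dose range (nine 2-fold or five 4-fold steps up to the top dose). Adherent lines were fixed and stained with the nucleic acid dye Syto60, suspension lines read with resazurin; signal relative to control wells, capped at 0 and 100%. One two-parameter sigmoid per drug and line, fitted in a mixed model over all curves with the slope shared within a line.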

Lapatinib = compound: CS(=O)(=O)CCNCc1ccc(-c2ccc3ncnc(Nc4ccc(OCc5cccc(F)c5)c(Cl)c4)c3c2)o1 [Lapatinib]; conditions: top dose 2 µM
Description: as §1

PD-173074 = compound: CCN(CC)CCCCNc1ncc2cc(-c3cc(OC)cc(OC)c3)c(NC(=O)NC(C)(C)C)nc2n1 [PD-173074]; conditions: top dose 2 µM; top dose inferred
Description: as §1

TGX221 = compound: Cc1cc(C(C)Nc2ccccc2)c2nc(N3CCOCC3)cc(=O)n2c1 [TGX221]; conditions: top dose 10 µM
Description: as §1

Cell Line | AUC (SB590885) | IC50 (SB590885) [nM] | AUC (Lapatinib) | IC50 (Lapatinib) [nM] | AUC (PD-173074) | IC50 (PD-173074) [nM] | AUC (TGX221) | IC50 (TGX221) [nM]
NCI-H211 (small cell lung carcinoma, adherent) | 0.972 | > 5000 | 0.979 | > 2000 | 0.981 | > 2000 | 0.974 | > 10000
NCI-H226 (lung squamous cell carcinoma, adherent) | 0.986 | > 5000 | 0.975 | > 2000 | 0.92 | > 2000 | 0.986 | > 10000
NCI-H322M (lung adenocarcinoma, suspension) | 0.96 | > 5000 | 0.921 | > 2000 | 0.938 | > 2000 | 0.98 | > 10000
NCI-H345 (small cell lung carcinoma, suspension) | 0.99 | > 5000 | 0.99 | > 2000 | 0.99 | > 2000 | 0.99 | > 10000
NCI-H510A (small cell lung carcinoma, semi-adherent) | 0.987 | > 5000 | 0.99 | > 2000 | 0.959 | > 2000 | 0.99 | > 10000
NCI-H524 (small cell lung carcinoma, suspension) | 0.986 | > 5000 | 0.987 | > 2000 | 0.991 | > 2000 | 0.982 | > 10000
NCI-H526 (small cell lung carcinoma, suspension) | 0.96 | > 5000 | 0.988 | > 2000 | 0.984 | > 2000 | 0.989 | > 10000
NCI-H720 (lung carcinoid, suspension) | 0.992 | > 5000 | 0.992 | > 2000 | 0.992 | > 2000 | 0.969 | > 10000
NCI-H747 (large intestine, adherent) | 0.968 | > 5000 | 0.906 | > 2000 | 0.982 | > 2000 | 0.959 | > 10000
NCI-H847 (small cell lung carcinoma, adherent) | 0.993 | > 5000 | 0.993 | > 2000 | 0.991 | > 2000 | 0.993 | > 10000
NCI-H1092 (small cell lung carcinoma, suspension) | 0.99 | > 5000 | 0.99 | > 2000 | 0.989 | > 2000 | 0.99 | > 10000
NCI-H1155 (large cell lung carcinoma, suspension) | 0.993 | > 5000 | 0.993 | > 2000 | 0.993 | > 2000 | 0.989 | > 10000
NCI-H1304 (small cell lung carcinoma, suspension) | 0.987 | > 5000 | 0.975 | > 2000 | 0.985 | > 2000 | 0.964 | > 10000
NCI-H1355 (lung adenocarcinoma, adherent) | 0.967 | > 5000 | 0.934 | > 2000 | 0.887 | > 2000 | 0.851 | > 10000
NCI-H1395 (lung adenocarcinoma, adherent) | 0.982 | > 5000 | 0.974 | > 2000 | 0.977 | > 2000 | 0.952 | > 10000
NCI-H1436 (small cell lung carcinoma, suspension) | 0.947 | > 5000 | 0.982 | > 2000 | 0.955 | > 2000 | 0.965 | > 10000
NCI-H1694 (small cell lung carcinoma, suspension) | 0.989 | > 5000 | 0.976 | > 2000 | 0.989 | > 2000 | 0.985 | > 10000
NCI-H1770 (non-small cell lung carcinoma, suspension) | 0.992 | > 5000 | 0.987 | > 2000 | 0.991 | > 2000 | 0.992 | > 10000
NCI-H1836 (small cell lung carcinoma, suspension) | 0.988 | > 5000 | 0.988 | > 2000 | 0.988 | > 2000 | 0.985 | > 10000
NCI-H1838 (lung adenocarcinoma, adherent) | 0.977 | > 5000 | 0.976 | > 2000 | 0.982 | > 2000 | 0.984 | > 10000
NCI-H1869 (lung squamous cell carcinoma, adherent) | 0.985 | > 5000 | 0.899 | > 2000 | 0.984 | > 2000 | 0.928 | > 10000
NCI-H2081 (small cell lung carcinoma, suspension) | 0.988 | > 5000 | 0.989 | > 2000 | 0.988 | > 2000 | 0.989 | > 10000

Cell Line | AUC (SB590885) | IC50 (SB590885) [nM] | AUC (Lapatinib) | IC50 (Lapatinib) [nM] | AUC (PD-173074) | IC50 (PD-173074) [nM] | AUC (TGX221) | IC50 (TGX221) [nM]
NCI-H2135 (non-small cell lung carcinoma, adherent) | 0.991 | > 5000 | 0.991 | > 2000 | 0.991 | > 2000 | 0.979 | > 10000
NCI-H2141 (small cell lung carcinoma, suspension) | 0.991 | > 5000 | 0.99 | > 2000 | 0.99 | > 2000 | 0.99 | > 10000
NCI-H2227 (small cell lung carcinoma, semi-adherent) | 0.986 | > 5000 | 0.985 | > 2000 | 0.924 | > 2000 | 0.983 | > 10000
NCI-SNU-1 (stomach, suspension) | 0.986 | > 5000 | 0.987 | > 2000 | 0.979 | > 2000 | 0.958 | > 10000
NCI-SNU-5 (stomach, suspension) | 0.985 | > 5000 | 0.983 | > 2000 | 0.984 | > 2000 | 0.989 | > 10000
NCI-SNU-16 (stomach, suspension) | 0.99 | > 5000 | 0.987 | > 2000 | 0.741 | 554 | 0.99 | > 10000
NEC8 (testis, adherent) | 0.962 | > 5000 | 0.99 | > 2000 | 0.706 | 427 | 0.979 | > 10000
NH-12 (neuroblastoma, adherent) | 0.981 | > 5000 | 0.984 | > 2000 | 0.98 | > 2000 | 0.978 | > 10000
NKM-1 (acute myeloid leukaemia, suspension) | 0.93 | > 5000 | 0.975 | > 2000 | 0.965 | > 2000 | 0.893 | > 10000
NMC-G1 (glioma, adherent) | 0.972 | > 5000 | 0.892 | > 2000 | 0.977 | > 2000 | 0.887 | > 10000
NOMO-1 (acute myeloid leukaemia, suspension) | 0.973 | > 5000 | 0.982 | > 2000 | 0.891 | > 2000 | 0.96 | > 10000
NOS-1 (osteosarcoma, adherent) | 0.947 | > 5000 | 0.954 | > 2000 | 0.921 | > 2000 | 0.906 | > 10000
NU-DUL-1 (B-cell lymphoma, suspension) | 0.977 | > 5000 | 0.991 | > 2000 | 0.964 | > 2000 | 0.894 | 7840
OCI-AML2 (acute myeloid leukaemia, suspension) | 0.995 | > 5000 | 0.995 | > 2000 | 0.995 | > 2000 | 0.994 | > 10000
OCI-AML3 (acute myeloid leukaemia, suspension) | 0.95 | > 5000 | 0.991 | > 2000 | 0.914 | > 2000 | 0.991 | > 10000
OCI-AML5 (acute myeloid leukaemia, suspension) | 0.989 | > 5000 | 0.987 | > 2000 | 0.988 | > 2000 | 0.971 | > 10000
OCI-LY-19 (B-cell lymphoma, suspension) | 0.981 | > 5000 | 0.988 | > 2000 | 0.963 | > 2000 | 0.983 | > 10000
OCI-M1 (acute myeloid leukaemia, suspension) | 0.994 | > 5000 | 0.993 | > 2000 | 0.991 | > 2000 | 0.995 | > 10000
OCUB-M (breast, adherent) | 0.989 | > 5000 | 0.366 | 56.6 | 0.986 | > 2000 | 0.944 | > 10000
OMC-1 (cervix, adherent) | 0.988 | > 5000 | 0.986 | > 2000 | 0.988 | > 2000 | 0.988 | > 10000
ONS-76 (medulloblastoma, adherent) | 0.883 | > 5000 | 0.968 | > 2000 | 0.977 | > 2000 | 0.98 | > 10000
OPM-2 (myeloma, suspension) | 0.994 | > 5000 | 0.994 | > 2000 | 0.859 | 1190 | 0.994 | > 10000
